{"source": "the RNAGym collection of RNA variant scans (doi:10.7554/elife.90254)", "parents": {"B1": {"name": "LINE1-mini (parent)", "chain": "GGCAGAGCUCAACACAGCGUGGCAAAGUGGCUGUGGCUAGACUGCC"}}, "note": "Read counts are not given, so values of variants with three or more changes are uncertain."}
{"variants_of": "B1", "assay": "self-cleavage, relative activity (ratio to wild type); higher = more cleavage; in vitro, sequencing; the parent is a self-cleaving ribozyme"}
{"variant": "GCAAGAGCGCAACACAGCGUGGCAAAGUGGCUGUGGCUUGACUGCC", "note": "[G2C C3A U9G A39U]", "self-cleavage": 0.08}
{"variant": "GCAAUAGCUCGACACAGUGUGGCAAAGUGGCGGUGGCCAGACUGCC", "note": "[G2C C3A G5U A11G C18U U32G U38C]", "self-cleavage": 0.02}
{"variant": "GCCAGAGCUCUACACAGCGUGGCAAGGUGGCUGUGGCUAGACUCCC", "note": "[G2C A11U A26G G44C]", "self-cleavage": 0}
{"variant": "GCCAGAGCUCAACACAGCGUGGCACCGAGGCUGUGUAUAGACUGCC", "note": "[G2C A25C A26C U28A G36U C37A]", "self-cleavage": 0.05}
{"variant": "GCAAGAGCUCAACACAGCGUGUCAAAGUGGCUGUGGCUAGACUGCC", "note": "[G2C C3A G22U]", "self-cleavage": 0.04}
{"variant": "GCCAGAGCUCAACACCGCGUGGCAGAGUGGCUGUGGCUAGACUGCC", "note": "[G2C A16C A25G]", "self-cleavage": 0.02}
{"variant": "GCCAGAGCUCAUCACAGCGUGGGAAAGUGGCUGUGGCUAGACUGCC", "note": "[G2C A12U C23G]", "self-cleavage": 0.02}
{"variant": "GCCAGAGCUCAACACAGCGUGGCAAAGUGGCUGUGGCUUGACUUCC", "note": "[G2C A39U G44U]", "self-cleavage": 0.07}
{"variant": "GCAAGAGCACAACACAGCGUGGCAAAGUUUCUGUGGCUAGACUGCC", "note": "[G2C C3A U9A G29U G30U]", "self-cleavage": 0.21}
{"variant": "GCCAGAGCUCAACACUGAGUCGCAAAGUGGCUGUGGCUAGACUGCC", "note": "[G2C A16U C18A G21C]", "self-cleavage": 0.11}
{"variant": "GCCAGAGCUCAACCCAGCGUGGCAAAAUGGCUGUGGCUAGAGUGCC", "note": "[G2C A14C G27A C42G]", "self-cleavage": 0.03}
{"variant": "GCAAGAGCUCAACAUAGCGUGGCAAAGUGGCUGUGGCUAGACUGCC", "note": "[G2C C3A C15U]", "self-cleavage": 0.09}
{"variant": "GCCAGAGCUCAACCCAUGGUGGCAAAGUGGCUGUGGCUACACUGCC", "note": "[G2C A14C G17U C18G G40C]", "self-cleavage": 0.04}
{"variant": "GCCAGAGCUCAUCACAGCGUGGCAAAGUGCCUGUGGCUAGACUGGC", "note": "[G2C A12U G30C C45G]", "self-cleavage": 0.03}
{"variant": "GCAAGAGUACAACACAGCGUGGCAAAGUGGCUGUGGCUAGACUGCC", "note": "[G2C C3A C8U U9A]", "self-cleavage": 0.26}
{"variant": "GCAAGGGCCCAACACAGCGUGGCAAAGUGGCUGUGUCUAGACUGUC", "note": "[G2C C3A A6G U9C G36U C45U]", "self-cleavage": 0.14}
{"variant": "GCUAGAGCUCGACACAGCGUGGCAAAGUGGCUGUGGCAAGACUGCC", "note": "[G2C C3U A11G U38A]", "self-cleavage": 0.04}
{"variant": "GCCAGAGCUCAGCAAAGCGUGGCAAAGUGUCUGUGGCUAGACUGCC", "note": "[G2C A12G C15A G30U]", "self-cleavage": 0.02}
{"variant": "GCAAGAGCUCAACACAGCGUGGCAAAUUGGCUAUGGCUAGACUGCC", "note": "[G2C C3A G27U G33A]", "self-cleavage": 0.04}
{"variant": "GCAAGAGUUCCACACAGCAUGGAAAAGUGGCUGUGGCUAGACUGCA", "note": "[G2C C3A C8U A11C G19A C23A C46A]", "self-cleavage": 0.03}
{"variant": "GCCAGAGCUCAACACAGCGUGGCUAUGUGGCUGUGGCUAGACUGCC", "note": "[G2C A24U A26U]", "self-cleavage": 0.06}
{"variant": "GCCAGAGCUCAACACUUCGUGGCAAAGUGGCUGUGGCUAGACUGCC", "note": "[G2C A16U G17U]", "self-cleavage": 0.13}
{"variant": "GCCAGAGCUCAACACCGCGUGGCAAACUGGCUGUGGCUAGACGGCC", "note": "[G2C A16C G27C U43G]", "self-cleavage": 0.01}
{"variant": "GCAAGAGCUCAACACAGCGUGGCUAAGCGGCUGUGGCUAGACUGCU", "note": "[G2C C3A A24U U28C C46U]", "self-cleavage": 0.14}
{"variant": "GCCAGAGCUCAACCCGGCGUGGCACAGUCGCUGUGGCUAGACUGCC", "note": "[G2C A14C A16G A25C G29C]", "self-cleavage": 0.06}
{"variant": "GCCAGAGCUCAACUAAGCGUUGCAGAGUGGCUGUGGCUAGACUGCC", "note": "[G2C A14U C15A G21U A25G]", "self-cleavage": 0.02}
{"variant": "GCCAGAGCUCAACACAGCGUGGCAAGGUGGCUGUGGCUAGACUGGC", "note": "[G2C A26G C45G]", "self-cleavage": 0.2}
{"variant": "GCCAGAGCUCAACUGAGCGUGGCUAAGUGGCUGUGGGUAGACUGCC", "note": "[G2C A14U C15G A24U C37G]", "self-cleavage": 0.01}
{"variant": "GCCAGAGCUCAACCCAGCGUGGCAAAGUGGCAGUGGCUAGACAGCC", "note": "[G2C A14C U32A U43A]", "self-cleavage": 0.03}
{"variant": "GCCAGAGCUCUACACAGCGUGGCAAAGUAGCUGUGGCUAGACUGCC", "note": "[G2C A11U G29A]", "self-cleavage": 0.04}
{"variant": "GCCAGAGCUCAACACAGCGUGGCGAAUUGGCUGUGGCUAGACUGCC", "note": "[G2C A24G G27U]", "self-cleavage": 0.05}
{"variant": "GCGAAAGCUCAACACAGCGUGGCAUAGUGGCUGUGGCUAGACUGCC", "note": "[G2C C3G G5A A25U]", "self-cleavage": 0.04}
{"variant": "GCCAGAGCUCAACACUGCGUGGCAAAGUGGCUGUGGGUAGACUGCC", "note": "[G2C A16U C37G]", "self-cleavage": 0.13}
{"variant": "GCGAGAGCUCAAUACAGCGUGGCAAAGUGGCUGUGGCUAGACUGCC", "note": "[G2C C3G C13U]", "self-cleavage": 0.06}
{"variant": "GCGAGGGCUCAACACAGCGUCGCAAAUUGGCUGUGGCUGGACUGCC", "note": "[G2C C3G A6G G21C G27U A39G]", "self-cleavage": 0.05}
{"variant": "GCCAGAGCUCAACACUGGGUGGCAAAGUGGCUGUGGCUAGACUGCC", "note": "[G2C A16U C18G]", "self-cleavage": 0.02}
{"variant": "GCCAGAGCUCAGCACAUCGUGGCAAAGUGGCUGUGGCUAGACUGCC", "note": "[G2C A12G G17U]", "self-cleavage": 0.04}
{"variant": "GCCAGAGCUCAACACGGCGUGGCAAAGUUGCUGUGGCUAGACUGCC", "note": "[G2C A16G G29U]", "self-cleavage": 0.1}
{"variant": "GCCAGAGCUCAACACUGCGUGGCAAAGUGGCAGUGGCUUGACAGCC", "note": "[G2C A16U U32A A39U U43A]", "self-cleavage": 0}
{"variant": "GCCAGAGCUCAGCACAGCGUGGCAAAGUGGCUGAGGCUAGACUGCC", "note": "[G2C A12G U34A]", "self-cleavage": 0.01}
{"variant": "GCCAGAGCUCAACACGGCGUGGCCAAGUGGCUGUGGCUAGUCUGCC", "note": "[G2C A16G A24C A41U]", "self-cleavage": 0.08}
{"variant": "GCCAGAGCUCAGCACAGCGUGGCAAAAUGGCUGUGGCUAGACUGCC", "note": "[G2C A12G G27A]", "self-cleavage": 0.03}
{"variant": "GCCAGAGCUCAACCCAGCGUGGCUAAGUGGCUGUGGAUAGACAGCC", "note": "[G2C A14C A24U C37A U43A]", "self-cleavage": 0}
{"variant": "GCCAGAGCUCUACACAGCGUGGCAAAGUGGCUGUGGAUAUACUGCC", "note": "[G2C A11U C37A G40U]", "self-cleavage": 0.01}
{"variant": "GCCAGAGCUCAACCCAGCGUGACAGACUGGCUGUGGCUAGACUGUC", "note": "[G2C A14C G22A A25G G27C C45U]", "self-cleavage": 0.04}
{"variant": "GCCAGAGCUCAGCUCAGCGUGGCAAAGUGGCUGUGGCUAGACUGCC", "note": "[G2C A12G A14U]", "self-cleavage": 0.02}
{"variant": "GCCAGAGCUCAACACUGCGUGGCAAAGUGGCUGUCGCUAGACUGCC", "note": "[G2C A16U G35C]", "self-cleavage": 0.08}
{"variant": "GCGAGAGCUCAACACAGUCUGGCAAAGUGGCUGUGGCUAGACUGCC", "note": "[G2C C3G C18U G19C]", "self-cleavage": 0.04}
{"variant": "GCACGAGCUCAACACAGCGUGGCAAAAUGGCUGUGGCUAGACAGCC", "note": "[G2C C3A A4C G27A U43A]", "self-cleavage": 0.05}
{"variant": "GCAAGAGCUCAACACAGCGUGACAAAGUGGCUGUGGUUAGACUGCC", "note": "[G2C C3A G22A C37U]", "self-cleavage": 0.02}
{"variant": "GCUAGAGCUCAACACAGCGUGGGAAAGUGGCUGUGGCUGGACUGCC", "note": "[G2C C3U C23G A39G]", "self-cleavage": 0.06}
{"variant": "GCCAGAGCUCAUGACAGCGUGGCAAAGUGGCUGUGGCUAGACUGAC", "note": "[G2C A12U C13G C45A]", "self-cleavage": 0.04}
{"variant": "GCAAGAGCUCAACAAAGCGUGUCAAAGUGGCUGUGGCUAGACUGCC", "note": "[G2C C3A C15A G22U]", "self-cleavage": 0.08}
{"variant": "GCUAGAGAUCAGUACAGCGUGGCGAAGUGGCUGUGGCUAGACUGCC", "note": "[G2C C3U C8A A12G C13U A24G]", "self-cleavage": 0.08}
{"variant": "GCGAGAGCUCAACACAGCGUGGCAAAGUGGCUGUUGCUAGACUGCC", "note": "[G2C C3G G35U]", "self-cleavage": 0.03}
{"variant": "GCCAGAGCUCAACACAGCGUGGCAAUGUGGCAGUGCCUAGCCUCCC", "note": "[G2C A26U U32A G36C A41C G44C]", "self-cleavage": 0.02}
